The supplement of paper PMC4604168 (melanoma cell lines)
Some of the results follow. Single values are uncertain, as repeats are few or missing.

Experiments:
Experiment in all cases: cell count relative to DMSO control; melanoma cells; higher = more viable cells
Settings in all cases: library dose: standard library concentration; 72 h
[1] = tested on: G361
[2] = tested on: IPC-298
[3] = tested on: IST-MEL1
[4] = tested on: LB2518-MEL
[5] = tested on: LOXIMVI
[6] = tested on: MEL-HO
[7] = tested on: MZ2-MEL
[8] = tested on: MeWo
[9] = tested on: RPMI7951
[10] = tested on: RVH-421
[11] = tested on: SkMel28
[12] = tested on: SkMel2
[13] = tested on: SkMel30
[14] = tested on: SkMel5
[15] = tested on: UACC257
[16] = tested on: UACC62
[17] = tested on: WM115
[18] = tested on: WM1716
[19] = tested on: WM1745
[20] = tested on: WM3526
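Note: cells treated in 1,536-well plates, then fixed and DAPI-stained, with nuclei counted from automated high-throughput microscope images.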

How did the cell count [1] turn out when O=C(Nc1cccc(Cl)c1)Nc1ncc(CCNc2ncnc3ccsc23)s1 + CCN(CC)CCCCNc1ncc2cc(-c3cc(OC)cc(OC)c3)c(NC(=O)NC(C)(C)C)nc2n1 [PD173074] (first compound 0.004 µM, partner dose 0.5 µM) was run?
The cell count was 75.1%.

What about the cell count [2] of the same compound?
Its cell count is 80.1%.

What about the cell count [3] of the same compound?
The cell count was 65.1%.

What about the cell count [4] of the same compound?
The cell count was 82.6%.

What about the cell count [5] of the same compound?
Its cell count is 76.2%.

And the cell count [6]?
Its cell count is 70%.

What about the cell count [7] of the same compound?
Its cell count is 81%.

What about the cell count [8] of the same compound?
The cell count was 75.6%.

What about the cell count [9] of the same compound?
The cell count was 46.3%.

What about the cell count [10] of the same compound?
The cell count was 59.5%.

And the cell count [11]?
Its cell count is 36.6%.

And the cell count [12]?
The cell count was 73%.

And the cell count [13]?
The cell count was 89.7%.

And the cell count [14]?
Its cell count is 90%.

What about the cell count [15] of the same compound?
Its cell count is 84.4%.

What about the cell count [16] of the same compound?
Its cell count is 72.4%.

What about the cell count [17] of the same compound?
The cell count was 46.7%.

And the cell count [18]?
Its cell count is 60.3%.

And the cell count [19]?
The cell count was 57.3%.

What about the cell count [20] of the same compound?
Its cell count is 75%.

Which results are given for O=C(Nc1cccc(Cl)c1)Nc1ncc(CCNc2ncnc3ccsc23)s1 + Oc1nc(-c2ccc(C(F)(F)F)cc2)nc2c1CSCC2 [XAV939] (first compound 0.004 µM, partner dose 10 µM)?
cell count [1]: 68.3%; cell count [2]: 68.7%; cell count [3]: 54.7%; cell count [4]: 69.3%; cell count [5]: 78.6%; cell count [6]: 68.5%; cell count [7]: 42.5%; cell count [8]: 74.6%; cell count [9]: 46.9%; cell count [10]: 93%; cell count [11]: 43.9%; cell count [12]: 73%; cell count [13]: 92.5%; cell count [14]: 95.8%; cell count [15]: 64.6%; cell count [16]: 72.2%; cell count [17]: 64.6%; cell count [18]: 45.9%; cell count [19]: 58%; cell count [20]: 78.5%

CC1(C)NC(=O)N(c2ccc([N+](=O)[O-])c(C(F)(F)F)c2)C1=O [nilutamide] + N#Cc1c(O)c2c(-c3ccc(-c4ccccc4O)cc3)csc2[nH]c1=O [A769662] (first compound 5 µM, partner dose 10 µM) was tested. Which cell count [1] did it give?
The cell count was 94%.

And the cell count [2]?
Its cell count is 116%.

What about the cell count [3] of the same compound?
Its cell count is 89.8%.

What about the cell count [4] of the same compound?
The cell count was 80.8%.

What about the cell count [5] of the same compound?
The cell count was 89.8%.

What about the cell count [6] of the same compound?
The cell count was 91.6%.

And the cell count [7]?
The cell count was 120%.

What about the cell count [8] of the same compound?
The cell count was 99.5%.

And the cell count [9]?
The cell count was 100%.

And the cell count [10]?
The cell count was 102%.

And the cell count [11]?
The cell count was 79.6%.

And the cell count [12]?
Its cell count is 98.6%.

And the cell count [13]?
The cell count was 84.3%.

And the cell count [14]?
The cell count was 110%.

And the cell count [15]?
Its cell count is 118%.

What about the cell count [16] of the same compound?
Its cell count is 128%.

And the cell count [17]?
Its cell count is 96%.

And the cell count [18]?
Its cell count is 108%.

What about the cell count [19] of the same compound?
The cell count was 119%.

What about the cell count [20] of the same compound?
The cell count was 115%.

With O=c1[nH]nc(Sc2ncc([N+](=O)[O-])s2)n1-c1ccc2c(c1)OCCO2 + C=C(c1ccc(C(=O)O)cc1)c1cc2c(cc1C)C(C)(C)CCC2(C)C [Bexarotene] (first compound 1 µM, partner dose 10 µM) as the compound, how does the cell count [1] read?
The cell count was 83.6%.

What about the cell count [2] of the same compound?
The cell count was 79.7%.

What about the cell count [3] of the same compound?
The cell count was 82.2%.

And the cell count [4]?
Its cell count is 98.8%.

And the cell count [5]?
Its cell count is 106%.

And the cell count [6]?
Its cell count is 93.4%.

What about the cell count [7] of the same compound?
Its cell count is 93.1%.

And the cell count [8]?
Its cell count is 98.8%.

What about the cell count [9] of the same compound?
The cell count was 102%.

What about the cell count [10] of the same compound?
Its cell count is 92.4%.

What about the cell count [11] of the same compound?
The cell count was 83.5%.

And the cell count [12]?
Its cell count is 96.3%.

And the cell count [13]?
Its cell count is 106%.

And the cell count [14]?
The cell count was 86.7%.

What about the cell count [15] of the same compound?
The cell count was 79.5%.

What about the cell count [16] of the same compound?
Its cell count is 75.1%.

And the cell count [17]?
Its cell count is 85.8%.

And the cell count [18]?
Its cell count is 92.3%.

What about the cell count [19] of the same compound?
The cell count was 97.3%.

What about the cell count [20] of the same compound?
Its cell count is 93.1%.

For CC1(C)NC(=O)N(c2ccc([N+](=O)[O-])c(C(F)(F)F)c2)C1=O [nilutamide] + COc1cc(N2CCC(N3CCN(C)CC3)CC2)ccc1Nc1ncc(Cl)c(Nc2ccccc2S(=O)(=O)C(C)C)n1 [NVP-TAE684] (first compound 5 µM, partner dose 0.4 µM), which cell count [1] is on record?
The cell count was 87.4%.

And the cell count [2]?
The cell count was 111%.

And the cell count [3]?
Its cell count is 98%.

And the cell count [4]?
Its cell count is 96.3%.

What about the cell count [5] of the same compound?
The cell count was 78.1%.

What about the cell count [6] of the same compound?
The cell count was 91.1%.

And the cell count [7]?
The cell count was 96.6%.

What about the cell count [8] of the same compound?
The cell count was 79.6%.

And the cell count [9]?
Its cell count is 60.5%.

And the cell count [10]?
The cell count was 87.2%.

And the cell count [11]?
Its cell count is 80%.

What about the cell count [12] of the same compound?
The cell count was 72.7%.

What about the cell count [13] of the same compound?
The cell count was 98%.

And the cell count [14]?
The cell count was 77.2%.

What about the cell count [15] of the same compound?
The cell count was 84.3%.

What about the cell count [16] of the same compound?
Its cell count is 96.5%.

And the cell count [17]?
The cell count was 84.8%.

What about the cell count [18] of the same compound?
Its cell count is 91.5%.

And the cell count [19]?
Its cell count is 52.2%.

And the cell count [20]?
Its cell count is 71.8%.

How did the cell count [1] turn out when C[C@@H]1CCN(C(=O)CC#N)C[C@@H]1N(C)c1ncnc2[nH]ccc12 + O=C(O)c1ccc(-c2c[nH]c3ncc(-c4ccccc4)cc23)cc1C1CCCC1 [GSK650394] (first compound 5 µM, partner dose 0.8 µM) was run?
The cell count was 63.1%.

What about the cell count [2] of the same compound?
Its cell count is 101%.

And the cell count [3]?
Its cell count is 24.4%.

And the cell count [4]?
The cell count was 99.5%.

What about the cell count [5] of the same compound?
Its cell count is 75.7%.

And the cell count [6]?
The cell count was 69.6%.

What about the cell count [7] of the same compound?
The cell count was 94.3%.

And the cell count [8]?
Its cell count is 95.3%.

What about the cell count [9] of the same compound?
Its cell count is 111%.

What about the cell count [10] of the same compound?
The cell count was 81.5%.

What about the cell count [11] of the same compound?
Its cell count is 65.6%.

And the cell count [12]?
The cell count was 85.8%.

And the cell count [13]?
Its cell count is 125%.

And the cell count [14]?
Its cell count is 101%.

What about the cell count [15] of the same compound?
Its cell count is 86.2%.

And the cell count [16]?
Its cell count is 102%.

And the cell count [17]?
Its cell count is 113%.

And the cell count [18]?
The cell count was 99.3%.

And the cell count [19]?
Its cell count is 94.9%.

And the cell count [20]?
Its cell count is 85.3%.

How did the cell count [1] turn out when COc1cc(Nc2ncc(F)c(Nc3ccc4c(n3)NC(=O)C(C)(C)O4)n2)cc(OC)c1OC [Tamatinib] + COc1cc2ncnc(Nc3ccc(Oc4ccccc4)cc3)c2cc1OC [SrcI1] (first compound 2 µM, partner dose 10 µM) was run?
Its cell count is 44.3%.

What about the cell count [2] of the same compound?
The cell count was 69.5%.

What about the cell count [3] of the same compound?
The cell count was 83.8%.

And the cell count [4]?
The cell count was 85.8%.

What about the cell count [5] of the same compound?
The cell count was 22.3%.

And the cell count [6]?
Its cell count is 70.2%.

And the cell count [7]?
Its cell count is 51%.

What about the cell count [8] of the same compound?
The cell count was 63%.

And the cell count [9]?
Its cell count is 18.5%.

And the cell count [10]?
Its cell count is 101%.

What about the cell count [11] of the same compound?
The cell count was 63.4%.

And the cell count [12]?
The cell count was 74.3%.

What about the cell count [13] of the same compound?
Its cell count is 65.7%.

What about the cell count [14] of the same compound?
Its cell count is 28%.

What about the cell count [15] of the same compound?
The cell count was 68.1%.

And the cell count [16]?
Its cell count is 63.1%.

And the cell count [17]?
Its cell count is 73.3%.

What about the cell count [18] of the same compound?
The cell count was 50.2%.

What about the cell count [19] of the same compound?
The cell count was 25.6%.

And the cell count [20]?
Its cell count is 55.7%.

What does the source list for O=C(O)c1ccc(-c2c[nH]c3ncc(-c4ccccc4)cc23)cc1C1CCCC1 + COC(=O)c1sccc1S(=O)(=O)Nc1ccc(Nc2ccccc2)cc1OC [GSK0660] (first compound 0.8 µM, partner dose 5 µM)?
cell count [1]: 65.4%; cell count [2]: 78%; cell count [3]: 76.9%; cell count [4]: 114%; cell count [5]: 108%; cell count [6]: 73.6%; cell count [7]: 73.1%; cell count [8]: 95.3%; cell count [9]: 91.5%; cell count [10]: 67.1%; cell count [11]: 69.4%; cell count [12]: 72.8%; cell count [13]: 83.5%; cell count [14]: 96.4%; cell count [15]: 80.1%; cell count [16]: 97.1%; cell count [17]: 93.3%; cell count [18]: 89.8%; cell count [19]: 73%; cell count [20]: 69.2%

Which cell count [1] does the source give for COc1cc(Nc2ncc(F)c(Nc3ccc4c(n3)NC(=O)C(C)(C)O4)n2)cc(OC)c1OC [Tamatinib] + CCN(CC)CCCCNc1ncc2cc(-c3cc(OC)cc(OC)c3)c(NC(=O)NC(C)(C)C)nc2n1 [PD173074] (first compound 2 µM, partner dose 0.5 µM) here?
Its cell count is 74.7%.

What about the cell count [2] of the same compound?
Its cell count is 89.4%.

And the cell count [3]?
Its cell count is 65.8%.

What about the cell count [4] of the same compound?
The cell count was 108%.

What about the cell count [5] of the same compound?
The cell count was 28.7%.

What about the cell count [6] of the same compound?
Its cell count is 79.6%.

What about the cell count [7] of the same compound?
Its cell count is 77%.

What about the cell count [8] of the same compound?
The cell count was 59.5%.

What about the cell count [9] of the same compound?
Its cell count is 33.3%.

What about the cell count [10] of the same compound?
Its cell count is 77.1%.

And the cell count [11]?
The cell count was 83.8%.

What about the cell count [12] of the same compound?
Its cell count is 71%.

What about the cell count [13] of the same compound?
The cell count was 75.1%.

And the cell count [14]?
Its cell count is 56.3%.

What about the cell count [15] of the same compound?
Its cell count is 71.6%.

And the cell count [16]?
Its cell count is 75.3%.

What about the cell count [17] of the same compound?
Its cell count is 78%.

What about the cell count [18] of the same compound?
Its cell count is 64.6%.

What about the cell count [19] of the same compound?
Its cell count is 29.1%.

And the cell count [20]?
The cell count was 89.6%.
